Holding throughout (experiment): cell count relative to DMSO control; melanoma cells; higher = more viable cells
One assay concerns 501Mel. The following applies: library dose: standard library concentration; 72 h.
A further assay relates to A101D. The following applies: library dose: standard library concentration; 72 h.
In another assay the test system is A2058. Conditions: library dose: standard library concentration; 72 h.
The test system of the next assay is A375. The following applies: library dose: standard library concentration; 72 h.
The test system of a further assay is WM115. The following applies: library dose: low library concentration; 72 h.
A further assay has as its system WM1716. The following applies: library dose: low library concentration; 72 h.
Another assay deals with WM1745. Conditions: library dose: low library concentration; 72 h.
The next assay concerns WM3526. The following applies: library dose: low library concentration; 72 h.
Another assay has as its system WM3619. Conditions: library dose: low library concentration; 72 h.
The subject of a further assay is WM451Lu. The following applies: library dose: low library concentration; 72 h.

The other results are listed elsewhere or left out. Most values come without repeats; read them as rough.

With `NCC(=O)Nc1ccc(-n2nc(C(F)(F)F)cc2-c2ccc3c(ccc4ccccc43)c2)cc1` + Cn1cc(/C=C2\C(=O)Nc3cccnc32)c2ccccc21 [GW441756] (first compound 5 µM, partner dose 2 µM), the cell count is 2.24% with 501Mel, 82.6% in the assay on A101D, 104% in the assay with A2058 and 24.3% in the assay on A375.

Consider `C[C@]1(c2nc3c(C(N)=O)cccc3[nH]2)CCCN1` [Veliparib] + COc1ccc(-c2ccc3c(N4CCOCC4)nc(N4C[C@@H](C)O[C@@H](C)C4)nc3n2)cc1CO [KU0063794] (first compound 1.4 µM, partner dose 0.02 µM), for which the cell count in the assay on WM115 turned out to be 80.6%; in the assay with WM1716, 89.5%; with WM1745, 95.2%; in the assay on WM3526, 89%; with WM3619, 86%; with WM451Lu, 107%.

For `CN(C)S(=O)(=O)c1ccc2c(c1)/C(=C/c1cc3c([nH]1)CCCC3)C(=O)N2` + Cc1cc([N+](=O)[O-])ccc1NS(=O)(=O)c1cc(Cl)ccc1Cl [FH535] (first compound 0.4 µM, partner dose 1 µM), the cell count in the assay with WM115 turned out to be 92.3%; in the assay with WM1716 it was 103%; in the assay on WM1745, 86.7%; in the assay on WM3526 it was 110%; with WM3619 it was 122%; in the assay with WM451Lu, 120%.

Consider `Cc1nc(Nc2ncc(C(=O)Nc3c(C)cccc3Cl)s2)cc(N2CCN(CCO)CC2)n1` [dasatanib] + N#Cc1c(O)c2c(-c3ccc(-c4ccccc4O)cc3)csc2[nH]c1=O [A769662] (first compound 0.02 µM, partner dose 10 µM), for which the cell count in the assay on 501Mel stood at 89.9%; in the assay with A101D, 76.4%; in the assay with A2058 it was 68.9%; in the assay with A375, 63.7%.

With `OCCn1cc(-c2cnc3nnn(Cc4ccc5ncccc5c4)c3n2)cn1` + COc1cc2ncnc(Nc3ccc(Oc4ccccc4)cc3)c2cc1OC [SrcI1] (first compound 5 µM, partner dose 10 µM), the cell count amounted to 82% in the assay with 501Mel, 74.6% with A101D, 92.5% in the assay with A2058 and 182% with A375.

`NC(=O)Nc1cc(-c2cccc(F)c2)sc1C(=O)N[C@H]1CCCNC1` + CCCCCCCCCCCC1=C(O)C(=O)C=C(O)C1=O [Embelin] (first compound 0.02 µM, partner dose 1.2 µM): the cell count came out at 110% in the assay with WM115; 98.2% in the assay on WM1716; 95.6% in the assay on WM1745; 92.5% in the assay on WM3526; 119% in the assay with WM3619; 87.4% with WM451Lu.

For the molecule `C=CCn1c(=O)c2cnc(Nc3ccc(N4CCN(C)CC4)cc3)nc2n1-c1cccc(C(C)(C)O)n1` + N#Cc1c(O)c2c(-c3ccc(-c4ccccc4O)cc3)csc2[nH]c1=O [A769662] (first compound 0.02 µM, partner dose 2 µM), the cell count in the assay with WM115 is 83.7%; with WM1716 it was 102%; with WM1745, 89%; with WM3526, 94.9%; in the assay on WM3619 it was 71.1%; in the assay with WM451Lu it was 118%.

For `Cc1nc(Nc2ncc(C(=O)Nc3c(C)cccc3Cl)s2)cc(N2CCN(CCO)CC2)n1` [dasatanib] + O=C1NC(=O)/C(=C/c2ccc(-c3ccc(F)cc3O)o2)S1 [AS252424] (first compound 0.004 µM, partner dose 1 µM), the cell count worked out at 70.5% with WM115; 77.4% with WM1716; 81% with WM1745; 109% in the assay with WM3526; 97.1% in the assay on WM3619; 94.3% in the assay with WM451Lu.

With `C[C@]1(c2nc3c(C(N)=O)cccc3[nH]2)CCCN1` [Veliparib] + O=C1NC(=O)/C(=C/c2ccc(-c3ccc(F)cc3O)o2)S1 [AS252424] (first compound 7 µM, partner dose 5 µM), the cell count is 90.4% with 501Mel, 105% in the assay with A101D, 85.3% with A2058 and 89.3% in the assay with A375.

With `CN(C)S(=O)(=O)c1ccc2c(c1)/C(=C/c1cc3c([nH]1)CCCC3)C(=O)N2` + O=C(Nc1ccccc1)c1cc([N+](=O)[O-])ccc1Cl [GW9662] (first compound 0.4 µM, partner dose 2 µM), the cell count is 79.7% in the assay on WM115; 107% with WM1716; 87.9% in the assay with WM1745; 109% with WM3526; 93.3% with WM3619; 98.9% with WM451Lu.

With `Cc1nc(Nc2ncc(C(=O)Nc3c(C)cccc3Cl)s2)cc(N2CCN(CCO)CC2)n1` [dasatanib] + Oc1nc(-c2ccc(C(F)(F)F)cc2)nc2c1CSCC2 [XAV939] (first compound 0.02 µM, partner dose 10 µM), the cell count in the assay with 501Mel is 85%; in the assay on A101D it was 80.4%; in the assay with A2058 it was 49.7%; in the assay on A375 it was 68.9%.

Regarding `C=CCn1c(=O)c2cnc(Nc3ccc(N4CCN(C)CC4)cc3)nc2n1-c1cccc(C(C)(C)O)n1` + Cc1cc(N2CCOCC2)cc2[nH]c(-c3c(NC[C@@H](O)c4cccc(Cl)c4)cc[nH]c3=O)nc12 [BMS536924] (first compound 0.02 µM, partner dose 0.2 µM), the cell count in the assay with WM115 is 89.7%; in the assay on WM1716, 89.8%; in the assay with WM1745, 62.5%; in the assay on WM3526 it was 85.6%; in the assay on WM3619 it was 68.5%; in the assay on WM451Lu, 98%.

Consider `CO[C@@H]1[C@H](N(C)C(=O)c2ccccc2)C[C@H]2O[C@]1(C)n1c3ccccc3c3c4c(c5c6ccccc6n2c5c31)C(=O)NC4` [Midostaurin] + O=C(O)C(=O)Nc1sc2c(c1C(=O)O)CCNC2 [TCS401] (first compound 0.08 µM, partner dose 1.66667 µM), for which the cell count was 97.6% in the assay with WM115; 88.5% in the assay on WM1716; 95.8% with WM1745; 101% with WM3526; 108% with WM3619; 116% in the assay with WM451Lu.

Turning to `CN(C)S(=O)(=O)c1ccc2c(c1)/C(=C/c1cc3c([nH]1)CCCC3)C(=O)N2` + c1cc(-c2cnn3cc(-c4ccc(OCCN5CCCCC5)cc4)cnc23)ccn1 [Dorsomorphin] (first compound 0.4 µM, partner dose 0.4 µM), the cell count in the assay on WM115 was 80.1%; in the assay with WM1716, 115%; in the assay with WM1745, 68.4%; with WM3526, 87.9%; in the assay on WM3619, 122%; with WM451Lu it was 92.9%.

On to `Cc1nc(Nc2ncc(C(=O)Nc3c(C)cccc3Cl)s2)cc(N2CCN(CCO)CC2)n1` [dasatanib] + CCCCCCCCCCCC1=C(O)C(=O)C=C(O)C1=O [Embelin] (first compound 0.02 µM, partner dose 6 µM), for which the cell count with 501Mel stood at 66.9%; with A101D it was 49.6%; in the assay with A2058 it was 66.2%; with A375, 48.3%.

`CO[C@@H]1[C@H](N(C)C(=O)c2ccccc2)C[C@H]2O[C@]1(C)n1c3ccccc3c3c4c(c5c6ccccc6n2c5c31)C(=O)NC4` [Midostaurin] + C[C@@H]1CCN(C(=O)CC#N)C[C@@H]1N(C)c1ncnc2[nH]ccc12 [CP690550] (first compound 0.08 µM, partner dose 1 µM): the cell count is 75.7% with WM115; 70.6% in the assay with WM1716; 79.7% in the assay with WM1745; 93.4% with WM3526; 73.2% in the assay on WM3619; 82.4% in the assay on WM451Lu.

Regarding `Cc1nc(Nc2ncc(C(=O)Nc3c(C)cccc3Cl)s2)cc(N2CCN(CCO)CC2)n1` [dasatanib] + O=c1cc(-c2cccc3c2Sc2ccccc2S3)oc(N2CCOCC2)c1 [KU55933] (first compound 0.004 µM, partner dose 1 µM), the cell count in the assay with WM115 came out at 77.6%; in the assay on WM1716, 71.4%; in the assay on WM1745 it was 73.6%; in the assay with WM3526, 74.8%; in the assay with WM3619, 86.7%; in the assay on WM451Lu it was 81.9%.

Take `C=CCn1c(=O)c2cnc(Nc3ccc(N4CCN(C)CC4)cc3)nc2n1-c1cccc(C(C)(C)O)n1` + Oc1nc(-c2ccc(C(F)(F)F)cc2)nc2c1CSCC2 [XAV939] (first compound 0.1 µM, partner dose 10 µM): the cell count is 94.8% in the assay on 501Mel, 64.1% with A101D, 73.5% with A2058 and 54.7% in the assay on A375.

Take `C[C@]1(c2nc3c(C(N)=O)cccc3[nH]2)CCCN1` [Veliparib] + Cc1cc(N2CCOCC2)cc2[nH]c(-c3c(NC[C@@H](O)c4cccc(Cl)c4)cc[nH]c3=O)nc12 [BMS536924] (first compound 1.4 µM, partner dose 0.2 µM): the cell count in the assay on WM115 was found to be 81.4%; in the assay on WM1716, 97.2%; in the assay with WM1745, 86.3%; in the assay on WM3526, 91.1%; in the assay with WM3619 it was 72.8%; in the assay on WM451Lu it was 92.7%.

For `NC(=O)Nc1cc(-c2cccc(F)c2)sc1C(=O)N[C@H]1CCCNC1` + CC(C)CCN1c2nc(Nc3cc(F)c(O)c(F)c3)ncc2N(C)C(=O)C1C [BID1870] (first compound 0.1 µM, partner dose 1 µM), the cell count was determined as 75.6% in the assay on 501Mel, 50.7% in the assay with A101D, 96.5% with A2058 and 65% with A375.

`OCCn1cc(-c2cnc3nnn(Cc4ccc5ncccc5c4)c3n2)cn1` + O=C(O)C(=O)Nc1sc2c(c1C(=O)O)CCNC2 [TCS401] (first compound 5 µM, partner dose 8.33333 µM): the cell count was 83.4% in the assay on 501Mel, 109% in the assay with A101D, 101% in the assay on A2058 and 176% in the assay on A375.

Turning to `CO[C@@H]1[C@H](N(C)C(=O)c2ccccc2)C[C@H]2O[C@]1(C)n1c3ccccc3c3c4c(c5c6ccccc6n2c5c31)C(=O)NC4` [Midostaurin] + N#Cc1c(O)c2c(-c3ccc(-c4ccccc4O)cc3)csc2[nH]c1=O [A769662] (first compound 0.4 µM, partner dose 10 µM), the cell count in the assay on 501Mel worked out at 96.5%; with A101D, 75.2%; in the assay on A2058 it was 60.4%; in the assay on A375, 75.2%.

Regarding `Cc1nc(Nc2ncc(C(=O)Nc3c(C)cccc3Cl)s2)cc(N2CCN(CCO)CC2)n1` [dasatanib] + c1cc(-c2cnn3cc(-c4ccc(OCCN5CCCCC5)cc4)cnc23)ccn1 [Dorsomorphin] (first compound 0.004 µM, partner dose 0.4 µM), the cell count with WM115 came to 63.6%; in the assay with WM1716, 81.2%; with WM1745, 54.3%; with WM3526, 81.7%; in the assay with WM3619, 76%; in the assay with WM451Lu, 80%.

On to `Cc1nc(Nc2ncc(C(=O)Nc3c(C)cccc3Cl)s2)cc(N2CCN(CCO)CC2)n1` [dasatanib] + CCc1ccc(CCOc2ccc(CC3SC(=O)NC3=O)cc2)nc1 [pioglitazone] (first compound 0.004 µM, partner dose 2 µM), for which the cell count in the assay with WM115 was 76.7%; in the assay on WM1716, 81.2%; in the assay on WM1745, 66.1%; in the assay on WM3526 it was 83.2%; with WM3619 it was 76.3%; with WM451Lu it was 66.4%.

`CN(C)S(=O)(=O)c1ccc2c(c1)/C(=C/c1cc3c([nH]1)CCCC3)C(=O)N2` + COc1ccc(-c2ccc3c(N4CCOCC4)nc(N4C[C@@H](C)O[C@@H](C)C4)nc3n2)cc1CO [KU0063794] (first compound 2 µM, partner dose 0.1 µM): the cell count in the assay on 501Mel was found to be 86.8%; in the assay on A101D it was 84.9%; with A2058, 83.4%; in the assay on A375, 143%.

For the molecule `C=CCn1c(=O)c2cnc(Nc3ccc(N4CCN(C)CC4)cc3)nc2n1-c1cccc(C(C)(C)O)n1` + CCc1ccc(CCOc2ccc(CC3SC(=O)NC3=O)cc2)nc1 [pioglitazone] (first compound 0.1 µM, partner dose 10 µM), the cell count is 45.7% in the assay on 501Mel, 51.7% in the assay with A101D, 82.1% in the assay on A2058 and 54.9% with A375.

In the case of `C[C@]1(c2nc3c(C(N)=O)cccc3[nH]2)CCCN1` [Veliparib] + CC1(C)NC(=O)N(c2ccc([N+](=O)[O-])c(C(F)(F)F)c2)C1=O [nilutamide] (first compound 1.4 µM, partner dose 1 µM), the cell count in the assay on WM115 was 85.9%; with WM1716, 83.3%; with WM1745 it was 87.8%; in the assay with WM3526, 100%; in the assay on WM3619 it was 97.9%; in the assay on WM451Lu, 118%.
